From PubChem BioAssay AID624296 (National Center for Advancing Translational Sciences (NCATS), 2012)
Where “and” joins values, the source holds several entries; their conditions need not be identical. Identical values can stand only once. Out of some 350,000 compounds screened, about 9,900 (2.8%) were called active. Inconclusive results, whose numbers are uncertain, are shown with a selection of clear calls. Calls come from the whole dose curve; as a rule, active = well fitted activation curve with a large enough effect; inconclusive = small, poorly fitted or top-dose-only effect; inactive = no such curve, though single readings can be large or run the other way. Potencies of inconclusive entries are doubtful fits and often do not repeat.

Test: A quantitative high throughput screen for small molecules that induce DNA re-replication in MCF 10a normal breast cells. For activity, positive = re-replication: % of control where 0% means no effect. Note: nearly all actives have a fitted effect of over 50% in size.
Conditions: MCF 10A DNA re-replication, Hoechst nuclear intensity, 48 h; activity, positive = re-replication: at 46.1 µM (top of the series)
Potency is the fitted concentration of half-maximal effect; tags give direction and shape of the fitted curve.

Structure (SMILES) | Potency | activity, positive = re-replication
O=C(c1ccc(Cl)cc1)C1CCCN(Cc2cccc3ncccc23)C1 (stereo not given) | inconclusive: 16.4 µM [activator, partial curve, poor fit] | –
O=C(CNC(=O)c1ccc(Cl)cc1)Nc1ccc(Br)cc1C(=O)c1ccccc1 | inconclusive: 1.16 µM [activator, full curve] | –
O=C(Nc1ccc(C(F)(F)F)cc1)c1cccn(Cc2ccc3c(c2)OC(F)(F)O3)c1=O | inconclusive: 10.3 µM [activator, partial curve, poor fit] | –
CCN1CCC2(CCNC2)C1 (stereo not given) | – | inactive: -1.15%
Cn1c(O)c(/C=C2\N=c3ccccc3=C2CCNC(=S)NC2CC2)c(=O)n(C)c1=O | inconclusive: 29.1 µM [activator, single point] | –
CCN(CC)c1ccc(N=Cc2c(O)n(-c3ccccc3)c(=O)[nH]c2=O)cc1 | – | inactive: -0.681%
CC[n+]1c(/C=C/C=C/c2ccc(N(C)C)cc2)sc2ccccc21 | – | inactive: -1.57%
O=C1CC(N2CCN(c3ccccc3)CC2)C(=O)N1CCc1ccccc1 (stereo not given) | inconclusive: 25.9 µM [activator, single point] | –
CC(C)(C)n1cc(C(=O)c2ccc3ccccc3c2O)cn1 | inconclusive: 23.1 µM [activator, single point] | –
C[C@H](CO)N1C[C@H](C)[C@H](CN(C)C(=O)Nc2cccc3ccccc23)Oc2c(NC(=O)c3ccc(-c4nccs4)cc3)cccc2C1=O | inconclusive: 25.9 µM [activator, single point] | –
O=c1c2ccccc2nc(-c2ccc(Cl)cc2Cl)n1-c1nccs1 | inconclusive: 25.9 µM [activator, single point] | –
CCCN1CCc2cccc3c2[C@H]1Cc1ccc(O)c(O)c1-3 | inconclusive: 29.1 µM [activator, single point] | –
Clc1ccccc1CN1CCN(c2ccccc2)CC1 | inconclusive: 29.1 µM [activator, single point] | –
COc1ccccc1N1CCN(Cc2ccc(Br)s2)CC1 | – | inactive: 10%
C/C(=N/O)c1ccc2ccc3ccccc3c2c1 | active: 25.9 µM | –
O=c1c2ccccc2nc(/C=C/c2ccccn2)n1-c1ccccc1 | inconclusive: 18.4 µM [activator, single point] | –
COC(=O)[C@]12OC[C@]34C([C@@H](O)[C@@H]1O)[C@]1(C)CC(=O)C(O)=C(C)[C@@H]1C[C@H]3OC(=O)[C@H](O)[C@@H]24 (stereo not given in full) | active: 14.6 µM | –
CCCCn1c(O)c(C(C)=NCCN2CCCCC2)c(=O)[nH]c1=O | – | inactive: 0.945%
CC1CCN(CC(=O)c2ccccc2Cl)CC1 | inconclusive: 25.9 µM [activator, single point] | –
COC(=O)C1=C(c2ccc(OC)c(OC)c2)C[C@@H]2CC[C@H]1N2C(=O)NCc1cc(C)oc1C(F)(F)F | – | inactive: -13.8%
CCCCC1(CCCC)C(=O)NC(=Nc2cccc(C)c2)NC1=O | – | inactive: 20.9%
O=C(CCN1CCCCC1)Nc1ccc(Br)cc1C(=O)c1ccccc1 | inconclusive: 18.4 µM [activator, partial curve, poor fit] | –

Structure (SMILES) | Potency | activity, positive = re-replication
COc1cccc(Cn2c(-c3cccs3)noc2=O)c1 | inconclusive: 0.92 µM [activator, full curve] | –
CCN(CC)c1ccc(N=Cc2c(O)n(-c3cc(OC)ccc3OC)c(=O)[nH]c2=O)cc1 | inconclusive: 25.9 µM [activator, partial curve, poor fit] | –
Cc1ccsc1C(=O)C1CCCN(Cc2ccccc2O)C1 (stereo not given) | inconclusive: 29.1 µM [activator, single point] | –
N#C/C(N)=C(/N)C#N | inconclusive: 0.206 µM [activator, full curve, poor fit] | –
COc1ccc(-n2c(/C=C/c3ccc4c(c3)OCO4)nc3ccccc3c2=O)cc1 | inconclusive: 18.4 µM [activator, single point] | –
CCOC(=O)c1c(C)n(Cc2ccc(F)cc2)c2ccc(O)cc12 | – | inactive: 5.65%
CCOC(=O)c1c(C=O)c2ccccc2n1Cc1ccccc1 | inconclusive: 4.61 µM [activator, full curve] | –
Cc1[nH]c2ccccc2c1C(=O)CN1CC=C(c2ccccc2)CC1 | active: 18.4 µM | –
CCCCCCOc1ccc(C(=O)n2cnc(N)n2)cc1 | active: 23.1 µM | –
Cc1ccc2c(c1)CC1(CN2C)C(=O)NC(=O)N(c2ccc(C)c(C)c2)C1=O (stereo not given) | inconclusive: 20.6 µM [activator, partial curve, poor fit] | –
C=CCc1cc(OC)c2c(c1)OCO2 | – | inactive: -0.474%
COc1cc(C)c(CN2CC=C(c3ccc(F)cc3)CC2)cc1C | inconclusive: 14.6 µM [activator, single point] | –
O=C1/C(=C/c2ccccc2)C[C@@]2(O)[C@H]3Cc4ccc(O)c5c4[C@@]2(CCN3CC2CC2)C1O5 (stereo not given in full) | active: 4.61 µM | –
O=[N+]([O-])c1cc(I)c(O)c(I)c1 | inconclusive: 13.3 µM [activator, single point] | –
COc1ccc(-c2nc(NC(=O)Cn3c(=O)oc4ccccc43)sc2C)cc1 | inconclusive: 29.1 µM [activator, partial curve, poor fit] | –
CN(C)CC/C=C1\c2ccccc2Sc2ccc(Cl)cc21 | inconclusive: 25.9 µM [activator, single point] and inconclusive: 29.9 µM [activator, single point] | –
COC(=O)C1=C(c2ccc(F)cc2OCc2ccccc2)C[C@@H]2CC[C@H]1N2C(=O)NCCCOC(C)C | inconclusive: 0.0517 µM [activator, full curve, poor fit] | –
O=C1Nc2cc(C(=O)N3CCC4(CC3)OCCO4)ccc2S/C1=C\c1ccccc1 | inconclusive: 18.4 µM [activator, single point] | –
CC1CCCCN1Cc1c[nH]c2ccccc12 (stereo not given) | – | inactive: 4.36%
CCCn1cc(CN2CCCC(C(=O)c3cccc(OC)c3)C2)c(C)n1 (stereo not given) | inconclusive: 29.1 µM [activator, single point] | –
Cc1c(O)c(=O)ccn1C | inconclusive: 18.4 µM [activator, partial curve, poor fit] | –
CN(C)C(=O)Oc1cc(OC(=O)N(C)C)cc([C@@H](O)CNC(C)(C)C)c1 | – | inactive: 1.09% [at 20.6 µM]

Structure (SMILES) | Potency | activity, positive = re-replication
C=C1C(=O)O[C@@H]2C[C@@H](C)[C@H]3C=CC(=O)[C@]3(O)C[C@@H]12 | inconclusive: 2.06 µM [activator, full curve, poor fit] | –
COc1ccc(OC(=O)N2C/C(=C/c3ccccc3)C(=O)/C(=C\c3ccccc3)C2)cc1 | active: 7.31 µM | –
O=C(Nc1ccc(Oc2ccc(Cl)cc2)c(Cl)c1)c1cc(I)cc(I)c1O | inconclusive: 1.16 µM [activator, partial curve] | –
CC12CCC(O)CC1CCC1C2CCC2(C)C(C(=O)CC(O)C(F)(F)F)CCC12 (stereo not given) | inconclusive: 23.1 µM [activator, single point] | –
C=CCn1c(O)c(C=Nc2ccc(N(CC)CC)cc2)c(=O)[nH]c1=O | inconclusive: 29.1 µM [activator, single point] | –
CC1(C)c2[nH]c3ccccc3c2C[C@H]2C(=O)N(Cc3ccccc3F)C(=O)N21 | inconclusive: 23.1 µM [activator, single point] | –
CCOC(=O)C(O)(c1ccc(N(CC)S(=O)(=O)c2ccc(C)cc2)cc1)C(F)(F)F (stereo not given) | inconclusive: 18.4 µM [activator, single point] | –
NC(N)=NN=C(/C=C/c1ccc([N+](=O)[O-])o1)/C=C/c1ccc([N+](=O)[O-])o1 | inconclusive: 13.3 µM [activator, partial curve, poor fit] | –
Cc1ccc2c(c1)CC1(CN2C)C(=O)NC(=O)N(c2ccccc2C)C1=O (stereo not given) | inconclusive: 18.4 µM [activator, single point] | –
Cc1ccc(C[n+]2c(-c3ccc(C)cc3)cc(-c3ccc(C)cc3)cc2-c2ccc(C)cc2)cc1 | active: 23.1 µM | –
C=CCN1C(=O)/C(=C/c2cc(C)n(-c3ccccn3)c2C)C(=O)NC1=S | inconclusive: 29.1 µM [activator, single point] | –
CCOC(=O)c1c(-n2c(C)cc(/C=C3\C(=O)NC(=O)N(C)C3=O)c2C)sc2c1CCCC2 | inconclusive: 20.6 µM [activator, single point] | –
CNc1ccc2oc(C[C@H]3O[C@@]4(CC[C@H]3C)O[C@H]([C@H](C)C(=O)c3ccc[nH]3)[C@H](C)C[C@H]4C)nc2c1C(=O)O | active: 4.61 µM | –
CNC(=O)O/N=C(\N)Cc1csc2ccc(Cl)cc12 | inconclusive: 23.1 µM [activator, single point] | –
CC(C)c1ccc(Oc2cccc3c2S(=O)(=O)N(C2CCCC2)CC(COCc2ccccc2)O3)cc1 (stereo not given) | – | inactive: -52%
COc1cc(CC2C(=O)N(C)C(=O)N(C)C2=O)ccc1OCc1ccccc1 | active: 5.17 µM | –
Cc1cc(NC(=O)COC(=O)c2c(C)nn(Cc3ccccc3Cl)c2C)no1 | inconclusive: 35.5 µM [activator, single point] | –
CC[C@]12CC[C@H](O)CC1=CCC1C2CC[C@]2(C)C(=O)CCC12 (stereo not given in full) | inconclusive: 20.6 µM [activator, single point] | –
Cc1ccc(-n2c(-c3cccs3)nc3ccccc3c2=O)cc1 | – | inactive: 11.4%
CCC1(C)Cc2ccccc2-c2c1c(=O)n(Cc1ccccc1)c1nnnn21 (stereo not given) | inconclusive: 1.16 µM [activator, full curve, poor fit] | –
CCOC(=O)c1c(C)[nH]c(C)c1C(=O)C(Cc1ccccc1)N(C)C (stereo not given) | inconclusive: 8.2 µM [activator, partial curve, poor fit] | –
